# The other results are listed elsewhere or left out.
# B1: PfulAvr4 (Pseudocercospora fuligena) (protein)
# chain: HHHHHHDYKDDDDKTYVQDKTPAFVCPAADIKTTKCLGPKDCLYPSPKTCNGYIQCSPADDSYLTGIIHEMPCPSGLLWNDNKKWCDWPENTTCGLVKSAGATEVDATKQGPTPGKYHG
# Assays:
# Assay in all cases: glycan array binding signal (z-score within array); higher = stronger binding
# Settings in all cases: glycan notation: IUPAC condensed, linker removed
# [1] = molecular target: Neu5Ac(a2-3)Gal(b1-4)GlcNAc(b1-6)GalNAc
# Procedure, shortened: (§1)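 Glycan array binding is given as a within-array Z-score, which can be read as non-binding when negative. The arrays, 3228 of them, came from the Consortium for Functional Glycomics database and were retained only where the protein sequence was available. Z-scores were averaged across arrays of the same protein sequence at different concentrations or buffers and across linkers.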
# [2] = molecular target: Neu5Ac(a2-3)Gal(b1-4)GlcNAc(b1-6)[Gal(b1-3)]GalNAc
# Procedure, shortened: as §1
# [3] = molecular target: Neu5Ac(a2-3)Gal(b1-4)GlcNAc(b1-6)[Neu5Ac(a2-3)Gal(b1-3)]GalNAc
# Procedure, shortened: as §1
# [4] = molecular target: Neu5Ac(a2-3)Gal(b1-4)GlcNAc6S
# Procedure, shortened: as §1
# [5] = molecular target: Neu5Ac(a2-3)Gal(b1-4)[Fuc(a1-3)]GlcNAc
# Procedure, shortened: as §1
# [6] = molecular target: Neu5Ac(a2-3)Gal(b1-4)[Fuc(a1-3)]GlcNAc(b1-2)Man
# Procedure, shortened: as §1
# [7] = molecular target: Neu5Ac(a2-3)Gal(b1-4)[Fuc(a1-3)]GlcNAc(b1-3)Gal
# Procedure, shortened: as §1
# [8] = molecular target: Neu5Ac(a2-3)Gal(b1-4)[Fuc(a1-3)]GlcNAc(b1-3)Gal(b1-4)GlcNAc
# Procedure, shortened: as §1
# [9] = molecular target: Neu5Ac(a2-3)Gal(b1-4)[Fuc(a1-3)]GlcNAc(b1-3)Gal(b1-4)[Fuc(a1-3)]GlcNAc(b1-3)Gal(b1-4)[Fuc(a1-3)]GlcNAc
# Procedure, shortened: as §1
# [10] = molecular target: Neu5Ac(a2-3)Gal(b1-4)[Fuc(a1-3)]GlcNAc(b1-3)GalNAc
# Procedure, shortened: as §1
# [11] = molecular target: Neu5Ac(a2-3)Gal(b1-4)[Fuc(a1-3)]GlcNAc(b1-6)[Gal(b1-3)]GalNAc
# Procedure, shortened: as §1
# [12] = molecular target: Neu5Ac(a2-3)Gal(b1-4)[Fuc(a1-3)]GlcNAc(b1-6)[Neu5Ac(a2-3)Gal(b1-3)]GalNAc
# Procedure, shortened: as §1
# [13] = molecular target: Neu5Ac(a2-3)Gal(b1-4)[Fuc(a1-3)]GlcNAc6S
# Procedure, shortened: as §1
# [14] = molecular target: Neu5Ac(a2-3)Gal6S(b1-4)GlcNAc
# Procedure, shortened: as §1
# [15] = molecular target: Neu5Ac(a2-3)Gal6S(b1-4)[Fuc(a1-3)]GlcNAc
# Procedure, shortened: as §1
# Neu5Ac(a2-3)GalNAc = molecular target: Neu5Ac(a2-3)GalNAc
# Procedure, shortened: as §1
# [16] = molecular target: Neu5Ac(a2-3)GalNAc(b1-4)GlcNAc
# Procedure, shortened: as §1
# [17] = molecular target: Neu5Ac(a2-3)[GalNAc(b1-4)]Gal(b1-4)Glc
# Procedure, shortened: as §1
# [18] = molecular target: Neu5Ac(a2-3)[GalNAc(b1-4)]Gal(b1-4)GlcNAc
# Procedure, shortened: as §1
# [19] = molecular target: Neu5Ac(a2-3)[GalNAc(b1-4)]Gal(b1-4)GlcNAc(b1-3)GalNAc
# Procedure, shortened: as §1
# [20] = molecular target: Neu5Ac(a2-3)[Neu5Ac(a2-6)]GalNAc
# Procedure, shortened: as §1
# Neu5Ac(a2-6)Gal = molecular target: Neu5Ac(a2-6)Gal
# Procedure, shortened: as §1
# [21] = molecular target: Neu5Ac(a2-6)Gal(b1-3)GlcNAc(b1-3)[Gal(b1-4)GlcNAc(b1-6)]Gal(b1-4)Glc
# Procedure, shortened: as §1
# Neu5Ac(a2-6)Gal(b1-4)Glc = molecular target: Neu5Ac(a2-6)Gal(b1-4)Glc
# Procedure, shortened: as §1
# [22] = molecular target: Neu5Ac(a2-6)Gal(b1-4)GlcNAc
# Procedure, shortened: as §1
# [23] = molecular target: Neu5Ac(a2-6)Gal(b1-4)GlcNAc(b1-2)Man
# Procedure, shortened: as §1
# [24] = molecular target: Neu5Ac(a2-6)Gal(b1-4)GlcNAc(b1-2)Man(a1-3)Man(b1-4)GlcNAc(b1-4)GlcNAc
# Procedure, shortened: as §1
# [25] = molecular target: Neu5Ac(a2-6)Gal(b1-4)GlcNAc(b1-2)Man(a1-3)[Gal(b1-4)GlcNAc(b1-2)Man(a1-6)]Man(b1-4)GlcNAc(b1-4)GlcNAc
# Procedure, shortened: as §1
# [26] = molecular target: Neu5Ac(a2-6)Gal(b1-4)GlcNAc(b1-2)Man(a1-3)[GlcNAc(b1-2)Man(a1-6)]Man(b1-4)GlcNAc(b1-4)GlcNAc
# Procedure, shortened: as §1
# [27] = molecular target: Neu5Ac(a2-6)Gal(b1-4)GlcNAc(b1-2)Man(a1-3)[GlcNAc(b1-4)][Neu5Ac(a2-6)Gal(b1-4)GlcNAc(b1-2)Man(a1-6)]Man(b1-4)GlcNAc(b1-4)GlcNAc
# Procedure, shortened: as §1
# [28] = molecular target: Neu5Ac(a2-6)Gal(b1-4)GlcNAc(b1-2)Man(a1-3)[Man(a1-6)]Man(b1-4)GlcNAc(b1-4)GlcNAc
# Procedure, shortened: as §1
# [29] = molecular target: Neu5Ac(a2-6)Gal(b1-4)GlcNAc(b1-2)Man(a1-3)[Neu5Ac(a2-3)Gal(b1-4)GlcNAc(b1-2)Man(a1-6)]Man(b1-4)GlcNAc(b1-4)GlcNAc
# Procedure, shortened: as §1
# [30] = molecular target: Neu5Ac(a2-6)Gal(b1-4)GlcNAc(b1-2)Man(a1-3)[Neu5Ac(a2-6)Gal(b1-4)GlcNAc(b1-2)Man(a1-6)]Man(b1-4)GlcNAc(b1-4)GlcNAc
# Procedure, shortened: as §1
# [31] = molecular target: Neu5Ac(a2-6)Gal(b1-4)GlcNAc(b1-2)Man(a1-3)[Neu5Ac(a2-6)Gal(b1-4)GlcNAc(b1-2)Man(a1-6)]Man(b1-4)GlcNAc(b1-4)[Fuc(a1-6)]GlcNAc
# Procedure, shortened: as §1
# [32] = molecular target: Neu5Ac(a2-6)Gal(b1-4)GlcNAc(b1-2)Man(a1-6)Man(b1-4)GlcNAc(b1-4)GlcNAc
# Procedure, shortened: as §1
# [33] = molecular target: Neu5Ac(a2-6)Gal(b1-4)GlcNAc(b1-2)Man(a1-6)[Gal(b1-4)GlcNAc(b1-2)Man(a1-3)]Man(b1-4)GlcNAc(b1-4)GlcNAc
# Procedure, shortened: as §1
# [34] = molecular target: Neu5Ac(a2-6)Gal(b1-4)GlcNAc(b1-2)Man(a1-6)[GlcNAc(b1-2)Man(a1-3)]Man(b1-4)GlcNAc(b1-4)GlcNAc
# Procedure, shortened: as §1
# [35] = molecular target: Neu5Ac(a2-6)Gal(b1-4)GlcNAc(b1-2)Man(a1-6)[Man(a1-3)]Man(b1-4)GlcNAc(b1-4)GlcNAc
# Procedure, shortened: as §1
# [36] = molecular target: Neu5Ac(a2-6)Gal(b1-4)GlcNAc(b1-2)[Neu5Ac(a2-6)Gal(b1-4)GlcNAc(b1-4)]Man(a1-3)[GlcNAc(b1-4)][Neu5Ac(a2-6)Gal(b1-4)GlcNAc(b1-2)[Neu5Ac(a2-6)Gal(b1-4)GlcNAc(b1-6)]Man(a1-6)]Man(b1-4)GlcNAc(b1-4)GlcNAc
# Procedure, shortened: as §1
# [37] = molecular target: Neu5Ac(a2-6)Gal(b1-4)GlcNAc(b1-2)[Neu5Ac(a2-6)Gal(b1-4)GlcNAc(b1-4)]Man(a1-3)[GlcNAc(b1-4)][Neu5Ac(a2-6)Gal(b1-4)GlcNAc(b1-4)Man(a1-6)]Man(b1-4)GlcNAc(b1-4)GlcNAc
# Procedure, shortened: as §1
# [38] = molecular target: Neu5Ac(a2-6)Gal(b1-4)GlcNAc(b1-2)[Neu5Ac(a2-6)Gal(b1-4)GlcNAc(b1-6)]Man(a1-6)[Neu5Ac(a2-6)Gal(b1-4)GlcNAc(b1-2)Man(a1-3)][GlcNAc(b1-4)]Man(b1-4)GlcNAc(b1-4)GlcNAc
# Procedure, shortened: as §1
# [39] = molecular target: Neu5Ac(a2-6)Gal(b1-4)GlcNAc(b1-3)Gal(b1-3)GlcNAc
# Procedure, shortened: as §1
# [40] = molecular target: Neu5Ac(a2-6)Gal(b1-4)GlcNAc(b1-3)Gal(b1-4)GlcNAc
# Procedure, shortened: as §1
# [41] = molecular target: Neu5Ac(a2-6)Gal(b1-4)GlcNAc(b1-3)Gal(b1-4)GlcNAc(b1-2)Man(a1-3)[Neu5Ac(a2-6)Gal(b1-4)GlcNAc(b1-3)Gal(b1-4)GlcNAc(b1-2)Man(a1-6)]GalNAc
# Procedure, shortened: as §1
# [42] = molecular target: Neu5Ac(a2-6)Gal(b1-4)GlcNAc(b1-3)Gal(b1-4)GlcNAc(b1-3)Gal(b1-4)GlcNAc
# Procedure, shortened: as §1
binder,measurement,setting,value
B1,glycan array binding signal (z-score),[1],-0.122
same,glycan array binding signal (z-score),[2],-0.053
same,glycan array binding signal (z-score),[3],-0.154
same,glycan array binding signal (z-score),[4],-0.197
same,glycan array binding signal (z-score),[5],-0.109
same,glycan array binding signal (z-score),[6],-0.069
same,glycan array binding signal (z-score),[7],-0.013
same,glycan array binding signal (z-score),[8],-0.007
same,glycan array binding signal (z-score),[9],-0.005
same,glycan array binding signal (z-score),[10],0.042
same,glycan array binding signal (z-score),[11],-0.093
same,glycan array binding signal (z-score),[12],-0.2
same,glycan array binding signal (z-score),[13],-0.188
same,glycan array binding signal (z-score),[14],-0.163
same,glycan array binding signal (z-score),[15],-0.146
same,glycan array binding signal (z-score),Neu5Ac(a2-3)GalNAc,-0.09
same,glycan array binding signal (z-score),[16],-0.102
same,glycan array binding signal (z-score),[17],-0.095
same,glycan array binding signal (z-score),[18],-0.141
same,glycan array binding signal (z-score),[19],-0.162
same,glycan array binding signal (z-score),[20],-0.131
same,glycan array binding signal (z-score),Neu5Ac(a2-6)Gal,-0.172
same,glycan array binding signal (z-score),[21],-0.105
same,glycan array binding signal (z-score),Neu5Ac(a2-6)Gal(b1-4)Glc,-0.14
same,glycan array binding signal (z-score),[22],-0.136
same,glycan array binding signal (z-score),[23],0.054
same,glycan array binding signal (z-score),[24],-0.137
same,glycan array binding signal (z-score),[25],3.32
same,glycan array binding signal (z-score),[26],-0.093
same,glycan array binding signal (z-score),[27],-0.114
same,glycan array binding signal (z-score),[28],-0.088
same,glycan array binding signal (z-score),[29],-0.049
same,glycan array binding signal (z-score),[30],-0.056
same,glycan array binding signal (z-score),[31],0.015
same,glycan array binding signal (z-score),[32],-0.045
same,glycan array binding signal (z-score),[33],-0.083
same,glycan array binding signal (z-score),[34],-0.162
same,glycan array binding signal (z-score),[35],-0.033
same,glycan array binding signal (z-score),[36],-0.175
same,glycan array binding signal (z-score),[37],-0.133
same,glycan array binding signal (z-score),[38],-0.068
same,glycan array binding signal (z-score),[39],-0.171
same,glycan array binding signal (z-score),[40],-0.057
same,glycan array binding signal (z-score),[41],-0.052
same,glycan array binding signal (z-score),[42],-0.099
